Measurements from PMC12136788.
Some of the results follow.

B1: 44041996_44042116_73_3pUTR_ENSMUSG00000034342_ENSMUST00000037644|mouse|control|control (ssRNA)
RNA: GGGAGUUCUACAGUCCGACGAUCUCGGCCGCGAGCGAGGGAAUGGAGCCGGGCGAGAAGGAGGGGCCUCUCCGGCAACCACCGCCGGCGCUCGCAGCCCAGGGAGUGAGAGGGAGGCGCCCGCCCUGAGGCGCGCCCCUGCGCCAACAGAGGAUUGAGCAUCA
B2: chr6:170626544:170626545:+_ENSG00000112584_ENST00000537664|hu_mus|FALSE|FALSE (ssRNA)
RNA: GGGAGUUCUACAGUCCGACGAUCUAGGCGUACAUCCAGGGUACUUGUUUCGGUGACGCUCUGCCAGCUCGUGGAUAUUGACUAUGGUACAUAUGUGUGGGCACGUACUCCCCACAAACCCCUGCAAACCUCUUACACCCAUAACAACAGAGGAUUGAGCAUCA
B3: chr5:137527996:137527997:-_ENSG00000094880_ENST00000394886|hu_hu|motif|central (ssRNA)
RNA: GGGAGUUCUACAGUCCGACGAUCUUCUCCUAAAGCAACCAGCAUGCGAGAAUCAUUGGGUCGAAGCUGGUGGGCCCGUCGGUAAUAAUAAAGGCAGUAAAAUGGCAUCUUAAGGAUUUCAUAGGUCUGCCCGAGGCCAUACCACAACAGAGGAUUGAGCAUCA
B4: chr4:115894766:115894767:+_ENSMUSG00000028698_ENSMUST00000030464|mus_hu|mus_mus_mus_hu_True|78_108 (ssRNA)
RNA: GGGAGUUCUACAGUCCGACGAUCUUCACACGGAAAUUGUACUUCGGGUUUUCCAACGCCAGUACAAAGUCCGGCCAAACUACCCGAACAGGGUCCUCCCCCUCUCUCCUACAGAACACAACAAAAUGCCCCCGAACUUUCAAGCAACAGAGGAUUGAGCAUCA
B5: chr7:6639541:6639542:+_ENSG00000146576_ENST00000344417|hu_hu|FALSE|FALSE (ssRNA)
RNA: GGGAGUUCUACAGUCCGACGAUCGGGUGCCUUCACGCACCAGCGGAUCAAUCCAACGAGCGGGGUGAGCUCUAAGAAUCCUAUUGGCAGAUUGGCCGCAAUCGGAGUAUUUAAAAAAGUGAUGAGAAUCAACCUUGGGUCCUCCAACAGAGGAUUGAGCAUCA
B6: chr3:9412954:9412955:+_ENSG00000134077_ENST00000452837|hu_mus|hu_hu_hu_mus_False|28_28 (ssRNA)
RNA: GGGAGUUCUACAGUCCGACGAUCGGUUGAUAUCUCUUCUUUGAUGGCUGGAUUUUCAUAAUAGUCCAAGAUAUGUGAAUCUGAAGUGCUGCUGGCAUGCUUUUUCUUAACAUUUCUCUCAUCUGCUUUGUCUCCUUGUCCACACAACAGAGGAUUGAGCAUCA
B7: chr13:3599227:3599228:-_ENSMUSG00000033799_ENSMUST00000096069|mus_mus|motif|central (ssRNA)
RNA: GGGAGUUCUACAGUCCGACGAUCUCAAGUAUGAUUUUAGAAGUGGGUGCUGCCAUCUUUUAGGAUCCUUGUGCUGAAAAGCGGCAAUUAUAUAAGGACAGGUCUGUCUGGGUCAUUUAAUAACAGUGUUGCCUGAAAGUUCAUCAACAGAGGAUUGAGCAUCA
B8: chr8:98731313:98731314:+_ENSG00000147649_ENST00000336273|hu_hu|FALSE|FALSE (ssRNA)
RNA: GGGAGUUCUACAGUCCGACGAUCAAAAGCUUUUUCCUGUUUUGGACGGGUUUUAGAGGUAUUCACUGGAAGGUCUUCUCUAAUCUCUUUUUCUAAUUCUUCUGUGUCCUGUGCAGUAGAGUUAUCUUCACCUUGCUUCUUCUUCAACAGAGGAUUGAGCAUCA
B9: 2904398_2906411_340_CDS_ENSG00000004478_ENST00000001008|human|control|control (ssRNA)
RNA: GGGAGUUCUACAGUCCGACGAUCCAGACUGGAGUCAAACUUUGUGCCAUCUAAUAGCCAGCCAGUGUAGUGGACAAAGACUCGGUCCCCAAUCAUGGGCAUCUCUGUACCUGUGCCCUCUCUCUUGAUGACCUUCAGCACGCCCAACAGAGGAUUGAGCAUCA
B10: chr6:118368571:118368572:-_ENSMUSG00000030138_ENSMUST00000032237|mus_mus|FALSE|FALSE (ssRNA)
RNA: GGGAGUUCUACAGUCCGACGAUCGUCUUGCAGGUGCCGUUUCUUUUUCUUCUCAGCUUUAGGCCCACUGUGCUUCUUCCUAUGUUUCUUGUGGUCCUUGGUCUCCAUGGUGGCUAUUUAUCUACUACAAAUAAGUCUUACCUUCAACAGAGGAUUGAGCAUCA
B11: 47634244_47646829_185_3pUTR_ENSG00000142230_ENST00000270225|human|control|control (ssRNA)
RNA: GGGAGUUCUACAGUCCGACGAUCUCCUGCCAAGAUGAGAUUCUUGGCAAUUUCAGCCCCAAGUCCUUUCAAGCCGACAAGAAGCACCCGAGAGGCCCGCAGCCGUUUCUGGGCCUCCAGUCCCCACAGGCGGAUCUGCCGGUCCAACAGAGGAUUGAGCAUCA
B12: chr13:95058138:95058139:+_ENSG00000183098_ENST00000377047|hu_hu|FALSE|FALSE (ssRNA)
RNA: GGGAGUUCUACAGUCCGACGAUCAUUUCUCAUGUUAAAUUAGUCUGAAAAUCAUAUGACAUAGUAGUAUGAUGAUAAAAACUAGGAAGUACAACUUGAAUGAUAUUUUGACCACAUCCAUGCAGGGUGCUAACACUGUGACAUCAACAGAGGAUUGAGCAUCA
B13: chr15:76912013:76912014:-_ENSMUSG00000033565_ENSMUST00000166610|mus_mus|FALSE|FALSE (ssRNA)
RNA: GGGAGUUCUACAGUCCGACGAUCGCUCUCAGUGCUCACCCUGAAAUCCAACGACCUUUGCAUAAAAAGCCAACUCCAUCUAGUCUUCCUUGGAAAAGGGCCUGAGGAAGUGGCAUCGGAGAGUGUCCUUGUCCACGCAGCAGACAACAGAGGAUUGAGCAUCA
B14: chr9:116041357:116041358:+_ENSG00000136875_ENST00000374198|hu_hu|FALSE|FALSE (ssRNA)
RNA: GGGAGUUCUACAGUCCGACGAUCUUCUCUUCUUUCAGCAGGACCCUCUCCAAAAAGUGUGAUGGGUUCCCCCAAGGCUCUAAGGCAAGCUUUGACCUCUGAGUCAUCUGUGGAAACAUUGAUCUGCCGGGCUCGCUUCCUUCUCAACAGAGGAUUGAGCAUCA

Biological target: T1, UNK ZnF1-3 (human, UniProt Q9C0B0 31-174)
T1 sequence: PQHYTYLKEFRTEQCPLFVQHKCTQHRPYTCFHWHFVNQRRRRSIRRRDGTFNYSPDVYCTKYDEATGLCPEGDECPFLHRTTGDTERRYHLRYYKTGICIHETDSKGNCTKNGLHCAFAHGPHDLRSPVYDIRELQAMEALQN
Experiment: nsRBNS (natural sequence RNA bind-n-seq); RBNS binding buffer (assumed for nsRBNS): 25 mM Tris pH 7.5, 150 mM KCl, 3 mM MgCl2, 0.01% Triton X-100, 500 ug/ml BSA, 20 U/ml SUPERase-In, 4 C; UNK is unkempt and MSI1 is Musashi-1; names of the RNAs are library labels; protein concentration not given here; high values mean tight binding

Binder | binding signal [enrichment R]
B1 | 0.497
B2 | 1.05
B3 | 1.24
B4 | 0.951
B5 | 2.3
B6 | 0.394
B7 | 1.18
B8 | 0.382
B9 | 1.09
B10 | 0.287
B11 | 0.291
B12 | 0.855
B13 | 1.36
B14 | 0.776
